# Test results published in the supplement of paper PMC8728848.
# This is one part of the list.
# B1: Strep tagII-anxA1 (Homo sapiens), P04083 (protein)
# chain: MAMVSEFLKQAWFIENEEQEYVQTVKSSKGGPGSAVSPYPTFNPSSDVAALHKAIMVKGVDEATIIDILTKRNNAQRQQIKAAYLQETGKPLDETLKKALTGHLEEVVLALLKTPAQFDADELRAAMKGLGTDEDTLIEILASRTNKEIRDINRVYREELKRDLAKDITSDTSGDFRNALLSLAKGDRSEDFGVNEDLADSDARALYEAGERRKGTDVNVFNTILTTRSYPQLRRVFQKYTKYSKHDMNKVLDLELKGDIEKCLTAIVKCATSKPAFFAEKLHQAMKGVGTRHKALIRIMVSRSEIDMNDIKAFYQKMYGISLCQAILDETKGDYEKILVALCGGN
# What was measured:
# Test in all cases: glycan array binding signal (z-score within array); higher = stronger binding
# Conditions in all cases: glycan notation: IUPAC condensed, linker removed
# [1] = molecular target: Neu5Ac(a2-6)Gal(b1-4)GlcNAc(b1-2)Man(a1-3)[Man(a1-6)]Man(b1-4)GlcNAc(b1-4)GlcNAc
# In short: (§1)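 Glycan array binding is given as a within-array Z-score, which can be read as non-binding when negative. The arrays, 3228 of them, came from the Consortium for Functional Glycomics database and were retained only where the protein sequence was available. Z-scores were averaged across arrays of the same protein sequence at different concentrations or buffers and across linkers.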
# [2] = molecular target: Neu5Ac(a2-6)Gal(b1-4)GlcNAc(b1-2)Man(a1-3)[Neu5Ac(a2-6)Gal(b1-4)GlcNAc(b1-2)Man(a1-6)]Man(b1-4)GlcNAc(b1-4)GlcNAc
# In short: as §1
# [3] = molecular target: Neu5Ac(a2-6)Gal(b1-4)GlcNAc(b1-2)Man(a1-3)[Neu5Ac(a2-6)Gal(b1-4)GlcNAc(b1-2)Man(a1-6)]Man(b1-4)GlcNAc(b1-4)[Fuc(a1-6)]GlcNAc
# In short: as §1
# [4] = molecular target: Neu5Ac(a2-6)Gal(b1-4)GlcNAc(b1-2)Man(a1-6)Man(b1-4)GlcNAc(b1-4)GlcNAc
# In short: as §1
# [5] = molecular target: Neu5Ac(a2-6)Gal(b1-4)GlcNAc(b1-2)Man(a1-6)[Gal(b1-4)GlcNAc(b1-2)Man(a1-3)]Man(b1-4)GlcNAc(b1-4)GlcNAc
# In short: as §1
# [6] = molecular target: Neu5Ac(a2-6)Gal(b1-4)GlcNAc(b1-2)Man(a1-6)[GlcNAc(b1-2)Man(a1-3)]Man(b1-4)GlcNAc(b1-4)GlcNAc
# In short: as §1
# [7] = molecular target: Neu5Ac(a2-6)Gal(b1-4)GlcNAc(b1-2)Man(a1-6)[Man(a1-3)]Man(b1-4)GlcNAc(b1-4)GlcNAc
# In short: as §1
# [8] = molecular target: Neu5Ac(a2-6)Gal(b1-4)GlcNAc(b1-3)Gal(b1-3)GlcNAc
# In short: as §1
# [9] = molecular target: Neu5Ac(a2-6)Gal(b1-4)GlcNAc(b1-3)Gal(b1-4)GlcNAc
# In short: as §1
# [10] = molecular target: Neu5Ac(a2-6)Gal(b1-4)GlcNAc(b1-3)Gal(b1-4)GlcNAc(b1-3)Gal(b1-4)GlcNAc
# In short: as §1
# [11] = molecular target: Neu5Ac(a2-6)Gal(b1-4)GlcNAc(b1-3)Gal(b1-4)[Fuc(a1-3)]GlcNAc(b1-3)Gal(b1-4)[Fuc(a1-3)]GlcNAc
# In short: as §1
# [12] = molecular target: Neu5Ac(a2-6)Gal(b1-4)GlcNAc(b1-3)GalNAc
# In short: as §1
# [13] = molecular target: Neu5Ac(a2-6)Gal(b1-4)GlcNAc(b1-3)[Neu5Ac(a2-6)Gal(b1-4)GlcNAc(b1-6)]GalNAc
# In short: as §1
# [14] = molecular target: Neu5Ac(a2-6)Gal(b1-4)GlcNAc(b1-6)GalNAc
# In short: as §1
# [15] = molecular target: Neu5Ac(a2-6)Gal(b1-4)GlcNAc(b1-6)[Gal(b1-3)GlcNAc(b1-3)]Gal(b1-4)Glc
# In short: as §1
# [16] = molecular target: Neu5Ac(a2-6)Gal(b1-4)GlcNAc6S
# In short: as §1
# Neu5Ac(a2-6)GalNAc = molecular target: Neu5Ac(a2-6)GalNAc
# In short: as §1
# [17] = molecular target: Neu5Ac(a2-6)GalNAc(b1-4)GlcNAc
# In short: as §1
# [18] = molecular target: Neu5Ac(a2-6)GalNAc(b1-4)GlcNAc6S
# In short: as §1
# [19] = molecular target: Neu5Ac(a2-6)GlcNAc(b1-4)GlcNAc
# In short: as §1
# [20] = molecular target: Neu5Ac(a2-6)GlcNAc(b1-4)GlcNAc(b1-4)GlcNAc
# In short: as §1
# Neu5Ac(a2-8)Neu5Ac = molecular target: Neu5Ac(a2-8)Neu5Ac
# In short: as §1
# [21] = molecular target: Neu5Ac(a2-8)Neu5Ac(a2-3)Gal(b1-3)GalNAc(b1-4)[Neu5Ac(a2-8)Neu5Ac(a2-3)]Gal(b1-4)Glc
# In short: as §1
# [22] = molecular target: Neu5Ac(a2-8)Neu5Ac(a2-3)Gal(b1-4)Glc
# In short: as §1
# [23] = molecular target: Neu5Ac(a2-8)Neu5Ac(a2-3)[Gal(b1-3)GalNAc(b1-4)]Gal(b1-4)Glc
# In short: as §1
# [24] = molecular target: Neu5Ac(a2-8)Neu5Ac(a2-3)[GalNAc(b1-4)]Gal(b1-4)Glc
# In short: as §1
# [25] = molecular target: Neu5Ac(a2-8)Neu5Ac(a2-8)Neu5Ac
# In short: as §1
# [26] = molecular target: Neu5Ac(a2-8)Neu5Ac(a2-8)Neu5Ac(a2-3)Gal(b1-4)Glc
# In short: as §1
# [27] = molecular target: Neu5Ac(a2-8)Neu5Ac(a2-8)Neu5Ac(a2-3)[GalNAc(b1-4)]Gal(b1-4)Glc
# In short: as §1
# [28] = molecular target: Neu5Ac(a2-8)Neu5Ac(a2-8)Neu5Ac(a2-8)Neu5Ac(a2-3)[GalNAc(b1-4)]Gal(b1-4)Glc
# In short: as §1
# [29] = molecular target: Neu5Ac(b2-6)Gal(b1-4)GlcNAc
# In short: as §1
# Neu5Ac(b2-6)GalNAc = molecular target: Neu5Ac(b2-6)GalNAc
# In short: as §1
# [30] = molecular target: Neu5Ac9Ac(a2-3)Gal(b1-3)GlcNAc
# In short: as §1
# [31] = molecular target: Neu5Ac9Ac(a2-3)Gal(b1-4)GlcNAc
# In short: as §1
# [32] = molecular target: Neu5Ac9Ac(a2-6)Gal(b1-4)GlcNAc
# In short: as §1
# [33] = molecular target: Neu5Gc(a2-3)Gal(b1-3)GlcNAc
# In short: as §1
# [34] = molecular target: Neu5Gc(a2-3)Gal(b1-3)[Fuc(a1-4)]GlcNAc
# In short: as §1
# Neu5Gc(a2-3)Gal(b1-4)Glc = molecular target: Neu5Gc(a2-3)Gal(b1-4)Glc
# In short: as §1
# [35] = molecular target: Neu5Gc(a2-3)Gal(b1-4)GlcNAc
# In short: as §1
# [36] = molecular target: Neu5Gc(a2-3)Gal(b1-4)[Fuc(a1-3)]GlcNAc
# In short: as §1
# [37] = molecular target: Neu5Gc(a2-6)Gal(b1-4)GlcNAc
# In short: as §1
# Neu5Gc(a2-6)GalNAc = molecular target: Neu5Gc(a2-6)GalNAc
# In short: as §1
# [38] = molecular target: Neu5Gc(b2-6)Gal(b1-4)GlcNAc
# In short: as §1
binder,measurement,setting,value
B1,glycan array binding signal (z-score),[1],-0.353
same,glycan array binding signal (z-score),[2],-0.15
same,glycan array binding signal (z-score),[3],1.87
same,glycan array binding signal (z-score),[4],0.14
same,glycan array binding signal (z-score),[5],-0.101
same,glycan array binding signal (z-score),[6],-0.595
same,glycan array binding signal (z-score),[7],-0.426
same,glycan array binding signal (z-score),[8],-0.337
same,glycan array binding signal (z-score),[9],-0.33
same,glycan array binding signal (z-score),[10],0.122
same,glycan array binding signal (z-score),[11],0.677
same,glycan array binding signal (z-score),[12],-0.096
same,glycan array binding signal (z-score),[13],0.603
same,glycan array binding signal (z-score),[14],2.63
same,glycan array binding signal (z-score),[15],-0.633
same,glycan array binding signal (z-score),[16],-0.423
same,glycan array binding signal (z-score),Neu5Ac(a2-6)GalNAc,-0.762
same,glycan array binding signal (z-score),[17],-0.422
same,glycan array binding signal (z-score),[18],0.246
same,glycan array binding signal (z-score),[19],-0.032
same,glycan array binding signal (z-score),[20],-0.66
same,glycan array binding signal (z-score),Neu5Ac(a2-8)Neu5Ac,0.257
same,glycan array binding signal (z-score),[21],0.503
same,glycan array binding signal (z-score),[22],-0.658
same,glycan array binding signal (z-score),[23],1.46
same,glycan array binding signal (z-score),[24],-0.763
same,glycan array binding signal (z-score),[25],-0.49
same,glycan array binding signal (z-score),[26],-0.488
same,glycan array binding signal (z-score),[27],-0.677
same,glycan array binding signal (z-score),[28],-0.633
same,glycan array binding signal (z-score),[29],-0.44
same,glycan array binding signal (z-score),Neu5Ac(b2-6)GalNAc,-0.503
same,glycan array binding signal (z-score),[30],-0.681
same,glycan array binding signal (z-score),[31],-0.482
same,glycan array binding signal (z-score),[32],0.087
same,glycan array binding signal (z-score),[33],-0.351
same,glycan array binding signal (z-score),[34],-0.102
same,glycan array binding signal (z-score),Neu5Gc(a2-3)Gal(b1-4)Glc,0.538
same,glycan array binding signal (z-score),[35],-0.083
same,glycan array binding signal (z-score),[36],0.35
same,glycan array binding signal (z-score),[37],-0.388
same,glycan array binding signal (z-score),Neu5Gc(a2-6)GalNAc,-0.469
same,glycan array binding signal (z-score),[38],-0.654
